{"source": "patent US10571469B2", "about": "“Kit for labelling bacteria” (Centre National de la Recherche Scientifique (CNRS), priority 2012, dated 2020)", "key": {"[1]": {"tested_on": "E. coli K12 wild type strain", "test": "KDO-N3 assimilation in various culture media (M9, LB)", "format": "cell-based, Escherichia coli", "conditions": "KDO-N3 1 mM, 12 hours"}, "[2]": {"tested_on": "E. coli K12 (living and heat-killed)", "protocol": "(§1) Overnight cultures were diluted 100 times in fresh medium (final volume 200 μl) containing KDO-N3 (1 mM). Bacteria were incubated at 37° C. for 12 hours and then washed 3 times with phosphate buffer (0.05 M, pH 7.5) by centrifugation at 14000×g for 2 min at room temperature.\n(§2) A click pre-mix composed of CuSO4 and TGTA, at a final concentration of 2 mM and 4 mM respectively, is incubated overnight in a phosphate buffer (0.05 M, pH 7.5) at 37° C. under vigorous shaking. Next, amino guanidine, sodium ascorbate and A488-yne at final concentrations of 4 mM, 5 mM and 0.13 mM respectively were added to the overnight click pre-mix. Bacteria were then re-suspended in this solution and incubated 30 minutes at 37° C. under shaking. Finally, cells were washed 3 times with phosphate buffer by centrifugation at 14000×g for 2 min at room temperature.\nE. coli K12 was grown in Luria-Bertani (LB) medium in a rotary shaker (200 rpm) at 37° C. Dead E. coli K12 were obtained after heating at 120° C. for 15 minutes.\n1.2) Copper catalysed click chemistry (as disclosed in example 5).\n1.3.1) For total bacterial scoring, cells were fixed and stained in a solution of paraformaldehyde 3%—DAPI 2 μg/ml and filtered on an isopore polycarbonate membrane (Milipore).\n1.3.2) Colony forming units (CFU) were also monitored by plating dilutions before Copper click chemistry.\n(§3) 1.3.3) Microscopic analyses were performed after Copper click chemistry on bacterial inoculum placed onto glass cover slips and covered with a thin (1 mm thick) semisolid 1% agar pad made with dilute LB (1/10 in phosphate buffer). Images were recorded with an epifluorescence automated microscope (Nikon TE2000-E-PFS, Nikon, France) equipped with a Cool SNAP HQ 2 camera (Roper Scientific, Roper Scientific SARL, France) and a 100×/1.4 DLL objective. Excitation light was emitted by a 120 W metal halide light and signal was monitored using appropriate filters. Digital analysis and image processing were conducted by a custom automation script (Visual Basic) under Metamorph 7.5 (Molecular Devices, Molecular Devices France, France)."}, "[3]": {"tested_on": "mixture of Gram+ bacteria (B. subtilis) and Gram− bacteria (E Coli)", "protocol": "as §1, §2, §3\nE. coli K12 wild type strain rendered fluorescent via m-cherry, E. coli K12 sodA-mCherry and B. subtilis were grown in Luria-Bertani (LB) medium in a rotary shaker (200 rpm) at 37° C.\n1.2) Copper catalysed click chemistry (as disclosed in example 6)\n1.3) Bacterial counting and fluorescence microscopy (as disclosed in example 5)"}, "[4]": {"tested_on": "E. coli K12 wild type strain", "conditions": "KDO-N3 1 mM, 12 hours; click with biotin-alkyn; anti-biotin antibody coupled to Alexa Fluor", "protocol": "E. coli K12 wild type strain is grown in Luria-Bertani (LB) medium in a rotary shaker (200 rpm) at 37° C.\nOvernight cultures were diluted 100 times in fresh medium (final volume 200 μl) containing KDO-N3 (1 mM). Bacteria were incubated at 37° C. for 12 hours, washed 3 times with phosphate buffer (0.05 M, pH 7.5) by centrifugation at 14000×g for 2 min at room temperature. A click pre-mix composed of CuSO4 and TGTA, at a final concentration of 2 mM and 4 mM respectively, was incubated overnight in phosphate buffer at 37° C. under vigorous shaking. Next, aminoguanidine, sodium ascorbate at final concentrations of 4 mM and 5 mM respectively were added to the overnight pre-mix click. […]\nAn anti-biotin antibody coupled to Alexa Fluor A594 (Jackson Immuno Research) was used diluted 10 to 1000 times to label bacteria. Colony forming units (CFU) were also monitored by plating dilutions before Copper click chemistry.\nMicroscopic analyses were performed after Copper click chemistry on bacterial inoculum placed onto glass cover slips and covered with a thin (1 mm thick) semisolid 1% agar pad made with dilute LB (1/10 in phosphate buffer). Images were recorded with an epifluorescence automated microscope (Nikon TE2000-E-PFS, Nikon, France) equipped with a CooISNAP HQ 2 camera (Roper Scientific, Roper Scientific SARL, France) and a 100×/1.4 DLL objective. […]"}, "[5]": {"conditions": "KDO-N3 1 mM, click with A488-yne, threshold 30 arbitrary fluorescence unit"}, "[6]": {"conditions": "E. coli plus B. subtilis, 696 analyzed cells"}}}
{"smiles": "[N-]=[N+]=NC[C@@H](O)[C@@H](O)[C@H](O)[C@H](O)CC(=O)C(=O)O", "note": "[KDO-N3, 8-azido-3,8-dideoxy-D-manno-octulosonic acid]", "values": [{"measurement": "KDO assimilation in LB medium compared to M9 medium", "setting": "[1]; 616 cells LB, 598 cells M9", "value": "higher"}, {"measurement": "KDO assimilation", "setting": "[1]; M9 or LB medium", "value": "occurs whatever the culture medium used"}, {"measurement": "cultivable cell share by KDO-N3 fluorescence counting", "setting": "[2]", "value": 47.7, "unit": "%"}, {"measurement": "cultivable cells (KDO-N3+), fluorescence above threshold 30", "setting": "[2]; [5]", "value": 1452, "unit": "cells"}, {"measurement": "dead cells (KDO-N3−), fluorescence below threshold 30", "setting": "[2]; [5]", "value": 1587, "unit": "cells"}, {"measurement": "incorporation in living versus dead E. coli", "setting": "[2]; known numbers of cultivable and dead (120° C., 15 minutes) E. coli", "value": "incorporated only in living E coli"}, {"measurement": "incorporation, share of the living E. coli", "setting": "[2]; known numbers of cultivable and dead E. coli", "value": "incorporated in all of the living E. coli"}, {"measurement": "KDO-N3+ cells, Total", "setting": "[3]; [6]", "value": 521}, {"measurement": "KDO-N3− cells, Total", "setting": "[3]; [6]", "value": 175}, {"measurement": "labeling and detection in Gram+/Gram− mixture", "setting": "[3]; mixture contacted with KDO-N3", "value": "Only cultivable Gram− bacteria was labeled"}, {"measurement": "detection of viable E. coli, Kdo positive cell counting versus cultivable counting", "setting": "[4]", "value": "all viable E. coli bacteria were detected"}]}
